The text below walks through data of publication PMC12820563, “FoxP3 forms a head-to-head dimer in vivo and stabilizes its multimerization on adjacent microsatellites”.

Some of the results follow.

In this experiment the target is T1, MBP-FoxP1dN (Mus musculus, UniProt P58462 326-579).
T1 sequence: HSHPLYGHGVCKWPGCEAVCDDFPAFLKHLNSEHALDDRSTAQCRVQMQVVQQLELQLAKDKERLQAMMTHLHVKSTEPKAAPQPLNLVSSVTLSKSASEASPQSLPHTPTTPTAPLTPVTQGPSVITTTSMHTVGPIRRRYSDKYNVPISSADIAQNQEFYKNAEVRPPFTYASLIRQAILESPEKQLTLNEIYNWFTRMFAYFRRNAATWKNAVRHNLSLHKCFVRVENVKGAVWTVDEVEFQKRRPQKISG
Description: PD-seq (MBP pull-down with sequencing); 20 mM Tris-HCl pH 7.5, 100 mM NaCl, 1.5 mM MgCl2, 0.4 uM protein, 0.1 uM dsDNA library, 30 min, room temperature, amylose pull-down; high values mean tight binding. The conditions noted are these: protein: recombinant; tags: His6-MBP; chain copies: 2; dsDNA, one strand shown. The procedure, abridged:
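Binding is reads-per-million enrichment of pull-down over input, with replicates pooled. It comes from 30 min room-temperature incubation in Tris pH 7.5 buffer with NaCl and MgCl2 of 0.4 µM His6-MBP-tagged, N-terminally truncated mouse FoxP3 or FoxP1 fragment from E. coli with 0.1 µM Klenow-filled degenerate double-stranded DNA library, followed by amylose resin capture, three washes and Illumina sequencing of the released DNA.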
Consider “GATGATTGTTCTCCCAGCTGATGAATTTAGCAACTCGAGTAAACAAATTTTCCTAATCTTTCTGTTCAAGCGCCATCTAC”, for which the binding signal is 1.06 RPM ratio (pull-down/input).
Turning to “GATGATTGTTCTCCCAGCTGATGAATTCACCAGCTCGAGTAAACAAATTTTCCTAATCTTTCTGTTCAAGCGCCATCTAC”, the binding signal was 0.809 RPM ratio (pull-down/input).
As for “GATGATTGTTCTCCCAGCTGATGAATTCAATGACTCGAGTAAACAAATTTTCCTAATCTTTCTGTTCAAGCGCCATCTAC”, the figure is 0.877 RPM ratio (pull-down/input); as for “GATGATTGTTCTCCCAGCTGATGAATTCGTGAAGTCGAGTAAACAAATTTTCCTAATCTTTCTGTTCAAGCGCCATCTAC”, 0.804 RPM ratio (pull-down/input).
Then “GATGATTGTTCTCCCAGCTGATGAATTGTGAAACTCGAGTAAACAAATTTTCCTAATCTTTCTGTTCAAGCGCCATCTAC”, with 1.1 RPM ratio (pull-down/input).
“GATGATTGTTCTCCCAGCTGATGAATTGTATGAGTCGAGTAAACAAATTTTCCTAATCTTTCTGTTCAAGCGCCATCTAC”: the binding signal is 1.02 RPM ratio (pull-down/input).
For the sequence “GATGATTGTTCTCCCAGCTGATGAATTTTGTGAGTCGAGTAAACAAATTTTCCTAATCTTTCTGTTCAAGCGCCATCTAC”, the binding signal was 1.13 RPM ratio (pull-down/input).
Turning to “GATGATTGTTCTCCCAGCTGATGAATTTCGCGAGTCGAGTAAACAAATTTTCCTAATCTTTCTGTTCAAGCGCCATCTAC”, the binding signal is 0.752 RPM ratio (pull-down/input).
For the sequence “GATGATTGTTCTCCCAGCTGATGAATTTGGTGGCTCGAGTAAACAAATTTTCCTAATCTTTCTGTTCAAGCGCCATCTAC”, the binding signal was 0.864 RPM ratio (pull-down/input).
With “GATGATTGTTCTCCCAGCTGATGAATTTCGACGGTCGAGTAAACAAATTTTCCTAATCTTTCTGTTCAAGCGCCATCTAC”, the binding signal was 0.762 RPM ratio (pull-down/input).
Regarding “GATGATTGTTCTCCCAGCTGATGAATTTGAAGAGTCGAGTAAACAAATTTTCCTAATCTTTCTGTTCAAGCGCCATCTAC”, the binding signal is 0.785 RPM ratio (pull-down/input).
Then “GATGATTGTTCTCCCAGCTGATGAATTCAGTTATTCGAGTAAACAAATTTTCCTAATCTTTCTGTTCAAGCGCCATCTAC”, with 1.03 RPM ratio (pull-down/input).
In the case of “GATGATTGTTCTCCCAGCTGATGAATTGTCAACGTCGAGTAAACAAATTTTCCTAATCTTTCTGTTCAAGCGCCATCTAC”, the binding signal is 1.26 RPM ratio (pull-down/input).
With “GATGATTGTTCTCCCAGCTGATGAATTACCATCTTCGAGTAAACAAATTTTCCTAATCTTTCTGTTCAAGCGCCATCTAC”, the binding signal was 1.02 RPM ratio (pull-down/input).
On to “GATGATTGTTCTCCCAGCTGATGAATTTCGGGTATCGAGTAAACAAATTTTCCTAATCTTTCTGTTCAAGCGCCATCTAC”, for which the binding signal is 0.828 RPM ratio (pull-down/input).
In the case of “GATGATTGTTCTCCCAGCTGATGAATTTCCAGCTTCGAGTAAACAAATTTTCCTAATCTTTCTGTTCAAGCGCCATCTAC”, the binding signal was 0.823 RPM ratio (pull-down/input).
Regarding “GATGATTGTTCTCCCAGCTGATGAATTGCACAGATCGAGTAAACAAATTTTCCTAATCTTTCTGTTCAAGCGCCATCTAC”, the binding signal was 1.2 RPM ratio (pull-down/input).
Consider “GATGATTGTTCTCCCAGCTGATGAATTGGCGTGCTCGAGTAAACAAATTTTCCTAATCTTTCTGTTCAAGCGCCATCTAC”, for which the binding signal was 0.881 RPM ratio (pull-down/input).
With “GATGATTGTTCTCCCAGCTGATGAATTGTTATCATCGAGTAAACAAATTTTCCTAATCTTTCTGTTCAAGCGCCATCTAC”, the binding signal is 1.73 RPM ratio (pull-down/input).
Then “GATGATTGTTCTCCCAGCTGATGAATTGACTTGCTCGAGTAAACAAATTTTCCTAATCTTTCTGTTCAAGCGCCATCTAC”, with 0.975 RPM ratio (pull-down/input); and “GATGATTGTTCTCCCAGCTGATGAATTACGATCTTCGAGTAAACAAATTTTCCTAATCTTTCTGTTCAAGCGCCATCTAC”, with 1.08 RPM ratio (pull-down/input); and “GATGATTGTTCTCCCAGCTGATGAATTCCTATCCTCGAGTAAACAAATTTTCCTAATCTTTCTGTTCAAGCGCCATCTAC”, with 0.762 RPM ratio (pull-down/input).
As for “GATGATTGTTCTCCCAGCTGATGAATTATCATCATCGAGTAAACAAATTTTCCTAATCTTTCTGTTCAAGCGCCATCTAC”, the binding signal was 1.12 RPM ratio (pull-down/input).
Regarding “GATGATTGTTCTCCCAGCTGATGAATTATGGTGTTCGAGTAAACAAATTTTCCTAATCTTTCTGTTCAAGCGCCATCTAC”, the binding signal was 1.11 RPM ratio (pull-down/input).
Then “GATGATTGTTCTCCCAGCTGATGAATTCGTGGCTTCGAGTAAACAAATTTTCCTAATCTTTCTGTTCAAGCGCCATCTAC”, with 0.863 RPM ratio (pull-down/input).
Regarding “GATGATTGTTCTCCCAGCTGATGAATTCTATAGTTCGAGTAAACAAATTTTCCTAATCTTTCTGTTCAAGCGCCATCTAC”, the binding signal was 0.911 RPM ratio (pull-down/input).
Turning to “GATGATTGTTCTCCCAGCTGATGAATTTGGGCTGTCGAGTAAACAAATTTTCCTAATCTTTCTGTTCAAGCGCCATCTAC”, the binding signal is 0.854 RPM ratio (pull-down/input).
Then “GATGATTGTTCTCCCAGCTGATGAATTAATGTAGTCGAGTAAACAAATTTTCCTAATCTTTCTGTTCAAGCGCCATCTAC”, with 1.24 RPM ratio (pull-down/input); and “GATGATTGTTCTCCCAGCTGATGAATTAAAGGCGTCGAGTAAACAAATTTTCCTAATCTTTCTGTTCAAGCGCCATCTAC”, with 1.03 RPM ratio (pull-down/input); and “GATGATTGTTCTCCCAGCTGATGAATTAGCAAGTTCGAGTAAACAAATTTTCCTAATCTTTCTGTTCAAGCGCCATCTAC”, with 0.864 RPM ratio (pull-down/input).
In the case of “GATGATTGTTCTCCCAGCTGATGAATTGAAGGGCTCGAGTAAACAAATTTTCCTAATCTTTCTGTTCAAGCGCCATCTAC”, the binding signal is 0.795 RPM ratio (pull-down/input).
As for “GATGATTGTTCTCCCAGCTGATGAATTAAGACACTCGAGTAAACAAATTTTCCTAATCTTTCTGTTCAAGCGCCATCTAC”, the binding signal was 0.953 RPM ratio (pull-down/input).
